# According to PubChem BioAssay AID686979 (National Center for Advancing Translational Sciences (NCATS), 2013):
# Among all 420,000 compounds or so, about 50,000 (12%) were called active. The inconclusive results got no clear call from the source; some entries with a clear call stand among them for comparison. The call rests on the fitted dose curve; in most records, active means well fitted inhibition curve with a large enough effect; inconclusive means small, poorly fitted or top-dose-only effect; inactive means flat fitted curve, though single readings scatter. Potencies of inconclusive entries are left out as doubtful fits.
# Assay: qHTS for Inhibitors of human tyrosyl-DNA phosphodiesterase 1 (TDP1): qHTS in cells in presence of CPT; further: nearly all actives have a fitted effect of over 55% in size
# Conditions: chicken DT40 Tdp1-/-;hTDP1 cells + 20 nM CPT, ATP luminescence, 48 h; activity change, negative = growth inhibition: at 46.2 µM (top of the series) unless noted
# How it was run: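 Chicken DT40 Tdp1-/- cells complemented with human TDP1, 400 cells/well, exposed to compounds plus 20 nM camptothecin for at least 48 h at 37 C; viability read as ATP content by CellTiter-Glo luminescence.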
# On the % scale 0 is the no-effect control and ±100 the full control effect; potency means the concentration at half of the fitted maximal effect; tags describe the fitted curve by direction and shape.
Structure (SMILES),Potency,"activity change, negative = growth inhibition"
CCc1cnc2c(c1SCC(=O)Nc1ccc(OC)c(OC)c1)c(=O)n(C)c(=O)n2C,"inconclusive [inhibitor, single point]",–
COc1ccc(S(=O)(=O)NC2CC2)cc1C(=O)N1CCOCC1,"inconclusive [inhibitor, single point]",–
Clc1ccc(N=c2ssnc2Cl)cc1,active: 10.3 µM,–
COc1ccc(CN(C)CC(O)COc2ccc(C(=O)c3ccccc3)cc2)c(OC)c1OC (stereo not drawn),"inconclusive [inhibitor, single point]",–
Cc1nc2c3ccccc3n(Cc3ccccc3F)c2s1,"inconclusive [inhibitor, single point]",–
COc1ccc(COC(=O)c2ccc(Br)c(S(=O)(=O)N3CCOCC3)c2)cc1F,"inconclusive [inhibitor, single point]",–
CCOC(=O)N1CCN(c2nc3ccc(C(=O)c4ccccc4)cc3n3cnnc23)CC1,"inconclusive [inhibitor, single point]",–
CCCC1=Nc2cc(C(=O)NCC(C)c3ccccc3)ccc2Sc2ccccc21 (stereo not drawn),"inconclusive [inhibitor, single point]",–
Nc1cc(S(=O)(=O)N2CCOCC2)ccc1N1CCCCC1,active: 23.1 µM,–
O=C(Cc1ccc(Cl)cc1)NC(=S)Nc1ccccc1N1CCOCC1,–,inactive: -29.6%
CN(C(=O)c1ccccc1Cl)c1ccccc1C(=O)NCc1ccccc1,–,inactive: -28.5%
CN(CCOc1ccccc1)C(=O)CCc1nc2sc3c(c2c(=O)[nH]1)CCCC3,"inconclusive [inhibitor, single point]",–
CC(C)(C)CN1CCC(Oc2cccc(C(=O)NCCCOc3cccnc3)c2)CC1,"inconclusive [inhibitor, single point]",–
Cc1nc(SCC(=O)Nc2ccc(S(=O)(=O)N3CCOCC3)cc2)c2c(C)c(C)sc2n1,active: 25.9 µM,–
COc1ccc(OC)c(/C=C/C(=O)Nc2cccc(S(=O)(=O)N3CCCC3)c2)c1,active: 23.1 µM,–
CCOCCCNS(=O)(=O)c1ccc(NC(=O)N2c3ccccc3Sc3ccccc32)cc1,active: 23.1 µM,–
CN1C2=CC=CC=CC2=[N+](C)C12C=CC(=[N+]([O-])[O-])C=C2[N+](=O)[O-] (stereo not drawn),–,inconclusive: -35.8% [inhibitor]
COc1ccc(NC(=O)CCOc2ccc(C)cc2)c(OC)c1,–,inactive: 1.61%
COc1ccccc1NC(c1cccnc1)c1ccc2cccnc2c1O (stereo not drawn),"inconclusive [inhibitor, single point]",–
CCCC1C(=O)N2C(N(C)C)=Nc3ccc(C)cc3N2C1=O (stereo not drawn),inactive,–
CC(C)CCn1c(O)c(N=Nc2ccccn2)c2ccccc21,"inconclusive [inhibitor, single point]",–
COc1ccc2ccccc2c1/C=N\NC(=O)c1cccnc1,–,inactive: 17.1%
CN(C)NC(=O)c1ccsc1NC(=O)c1ccc(S(=O)(=O)N(C)C)cc1,–,inactive: -25.2%
Cc1ccc(C2c3c(-c4ccccc4O)n[nH]c3C(=O)N2CCc2ccccc2)cc1 (stereo not drawn),"inconclusive [inhibitor, single point]",–
CN(C)c1ccc(/C=C(/NC(=O)c2ccccc2Cl)C(=O)NCCN2CCOCC2)cc1,–,inactive: 4.98%

Structure (SMILES),Potency,"activity change, negative = growth inhibition"
Cc1nc(SCC(=O)N2CCOCC2)c2c(=O)n(C)c(=O)n(CC(C)C)c2n1,–,inactive: 0.565%
O=C(CCC(=O)c1cccs1)OCc1nnc(-c2ccccc2)o1,–,inactive: -13.5%
CCOC(=O)c1cnc2c(F)ccc(F)c2c1Sc1ccccc1,–,inactive: -48.7%
Cn1nnnc1SCC(=O)Nc1ccc(S(=O)(=O)N2CCOCC2)cc1,–,inactive: -0.0281%
CCOC(=O)C(C(=O)OCC)c1cc(Br)c2noc3c2c1C(=O)c1ccccc1-3,active: 3.66 µM,–
COc1ccc(NC(=O)c2cccc(S(=O)(=O)N3CCCCC3)c2)c(OC)c1,–,inconclusive: -34.5% [inhibitor]
O=C1/C(=C/c2cccs2)COc2ccccc21,"inconclusive [inhibitor, single point]",–
[O-]/C(=C(\C(=S)Nc1cccc2ccccc12)[n+]1ccccc1)c1ccc(Cl)s1,"inconclusive [inhibitor, single point]",–
CCOC(=O)N/N=C/c1ccccc1OCc1ccc(Cl)cc1,"inconclusive [inhibitor, single point]",–
COc1ccc(-c2csc(NC(=O)c3ccc(S(=O)(=O)N4CCc5ccccc5C4)cc3)n2)c(OC)c1,"inconclusive [inhibitor, single point]",–
CCn1cc(C(=O)N2CCc3ccccc32)c(=O)c2cc(S(=O)(=O)N3CC(C)CC(C)C3)ccc21 (stereo not drawn),active: 14.6 µM,–
CC(=O)N1c2c(cc(Br)cc2S(=O)(=O)Nc2ccc(OC(F)(F)F)cc2)CC1C (stereo not drawn),active: 18.4 µM,–
Cc1cc(C)n2nc(SC(C)C(=O)N3CC(C)OC(C)C3)nc2n1 (stereo not drawn),"inconclusive [inhibitor, single point]",–
COc1ccc(/C=C2/SC(=S)N(CCCC(=O)Nc3ccc(O)cc3)C2=O)cc1,"inconclusive [inhibitor, single point]",–
CCc1nc2ccc(C(=O)Nc3ccc(OC)c(OC)c3)cn2c1N(C)Cc1nccs1,active: 14.6 µM,–
Clc1ccccc1CSc1cnnc2ccccc12,"inconclusive [inhibitor, single point]",–
CCc1cc2c(=O)c(-c3nc4ccccc4n3C)coc2c(CN2CCOCC2)c1O,"inconclusive [inhibitor, single point]",–
COC(=O)C1=C(C)N(c2ccc(OC)c(OC)c2)C(=O)/C1=C\c1ccco1,"inconclusive [inhibitor, single point]",–
CCC(C)NC(=O)CSc1ccc(S(=O)(=O)N2CCN(Cc3ccccc3)CC2)cn1 (stereo not drawn),"inconclusive [inhibitor, single point]",–
CC(=O)Nc1ccc(S(=O)(=O)CCC(=O)O)cc1,–,inactive: -16.1%
CCc1c(C)c2ccc(OCC(=O)OC)cc2oc1=O,"inconclusive [inhibitor, single point]",–
CCc1cccc(C)c1NC(=O)NC1COc2ccccc2C1 (stereo not drawn),–,inactive: -25.3%
CCOC(=O)c1ccc(NC(=O)c2c(N)n(C)c(=O)[nH]c2=O)cc1,–,inactive: -12.4%
O=C(CSc1cccc(C(F)(F)F)c1)N1CCN(S(=O)(=O)c2ccccc2)CC1,"inconclusive [inhibitor, single point]",–
COc1ccc(NC(=O)NCc2c(-n3cccc3)sc3c2CCCC3)c(OC)c1,"inconclusive [inhibitor, single point]",–

Structure (SMILES),Potency,"activity change, negative = growth inhibition"
CCOC(=O)c1ccccc1NC(=O)c1c(O)c2ccccc2n(CC)c1=O,"inconclusive [inhibitor, single point]",–
O=C(Nc1ccccc1C(=O)O)c1ccc(NC(=O)C2CCCCC2)cc1,"inconclusive [inhibitor, single point]",–
Cc1c(C(=O)OC2CCC(C)CC2)[nH]c2c1C(=O)CC(c1ccccc1Cl)C2 (stereo not drawn),active: 5.17 µM,–
O=C1CCCN1CCCNS(=O)(=O)c1ccc(F)c(F)c1,–,inactive: 21.3%
Cc1ccc(CC(=O)NC(C)CCc2ccccc2)cc1 (stereo not drawn),–,inactive: 2.99%
CCOc1ccc(CCNC(=O)CCCc2nnc3n(C)c(=O)c4sccc4n23)cc1OCC,–,inactive: -0.855%
COc1ccc(C2CC(c3ccccc3)=NN2C(=O)COC(=O)c2cnc(Cl)c(Cl)c2)cc1 (stereo not drawn),active: 20.6 µM,–
COc1ccccc1CN(Cc1ccco1)c1cnc(S(C)(=O)=O)nc1C(=O)Nc1ccccc1Cl,"inconclusive [inhibitor, single point]",–
COc1ccc(CN2CCN(C(=O)c3ccc(S(=O)(=O)N4CCCCCC4)cc3)CC2)cc1,"inconclusive [inhibitor, single point]",–
Cc1cc(NC(=O)CSc2nc(-c3cccs3)nc3ccccc23)no1,active: 2.31 µM,–
NC(=O)COC(=O)CCSc1ccc(Cl)cc1,–,inactive: -0.728%
COc1ccc(C(C(=O)NC(C)(C)C)N(Cc2cccs2)C(=O)CCC(=O)Nc2cc(C)on2)cc1 (stereo not drawn),"inconclusive [inhibitor, single point]",–
C[C@@H](NC(=O)[C@@H]1CCCN1C(=O)[C@@H]1CCCN1C(=O)c1cccc2ccccc12)c1ccccc1,"inconclusive [inhibitor, single point]",–
Cc1ccc(C)c(NC(=O)c2nnn(Cc3ccccc3C)c2N)c1,–,inconclusive: -34.4% [inhibitor]
O=P(O)(c1ccc(Cl)cc1)c1ccc(Cl)cc1,–,inactive: -10.6%
COc1ccc(OC)c(NC(=O)c2nc(S(=O)(=O)Cc3ccccc3F)ncc2Cl)c1,active: 1 µM,–
Cc1c(C(=O)Nc2nc3ccccc3[nH]2)oc2c(Cl)cccc12,"inconclusive [inhibitor, single point]",–
C=CCN1C(=O)C(CC(=O)O)SC1=Nc1ccc(C)cc1 (stereo not drawn),–,inactive: 0.323%
CCc1ccc(C(=O)C(C)OC(=O)Cn2[nH]c(=O)c3ccccc3c2=O)cc1 (stereo not drawn),–,inactive: -2.49%
Cc1cccn2c(=O)c3cc(S(=O)(=O)c4ccccc4)c(=N)n(CC4CCCO4)c3nc12 (stereo not drawn),"inconclusive [inhibitor, partial curve, poor fit]",–
COc1ccc(NC(=O)C(C)N2c3cccc4cccc(c34)S2(=O)=O)cc1 (stereo not drawn),"inconclusive [inhibitor, partial curve, poor fit]",–
COc1cc(O)c(C(CCN2CCCC2)c2ccc(N(C)C)cc2)c(OC)c1 (stereo not drawn),active: 14.6 µM,–
COc1ccc(NCc2cc3cc4c(cc3n(CC(=O)Nc3ccccc3)c2=O)OCO4)cc1,active: 5.17 µM,–
